The values below come from the RNAGym collection of RNA variant scans (doi:10.7554/elife.90254).

B1: LINE1-mini (parent)
chain: GGCAGAGCUCAACACAGCGUGGCAAAGUGGCUGUGGCUAGACUGCC

The source gives no read counts; variants with many changes may rest on few reads.

The data set covers variants of B1. Nature of the data set: self-cleavage, relative activity (ratio to wild type); higher = more cleavage; in vitro, sequencing; the parent is a self-cleaving ribozyme.
With G7C G30U C46G, the self-cleavage was 0.

For G7C G17C C18A G22C, the self-cleavage came to 0.04.

Turning to G7C A16U C31G, the self-cleavage was 0.02.

For the variant G7C C10U A39U, the self-cleavage amounted to 0.03.

Regarding G7C G29C A41C G44C, the self-cleavage was 0.04.

As for G7C A11U A24U, the self-cleavage was determined as 0.02.

For G7C A25U C46U, the self-cleavage was found to be 0.06.

With G7C C8U C10A A14U C37U A39C, the self-cleavage turned out to be 0.02.

G7C A24U U43A: the self-cleavage is 0.08.

On to G7C G33U G44A, for which the self-cleavage was 0.11.

As for G7C A16U G17C U32C U34G, the self-cleavage was 0.02.

G7C C13G C18U U38G C45U: the self-cleavage stood at 0.01.

Turning to G7C C10A C13U G33U, the self-cleavage came to 0.

In the case of G7C G21U G33C, the self-cleavage was 0.04.

Turning to G7C U9G C10G A11C C15U A16C C31U A39C, the self-cleavage is 0.01.

With G7C C10G C13G C18G U20C A26U G30C G36C, the self-cleavage is 0.01.

On to G7C C13A A14G, for which the self-cleavage was 0.

With G7C C13G A26G G44A, the self-cleavage came out at 0.06.

For G7C C10A C23A, the self-cleavage turned out to be 0.01.

In the case of G7C U9A G21A G33A, the self-cleavage came to 0.28.

Regarding G7C A12G G44U, the self-cleavage worked out at 0.05.

With G7C U20G G30A, the self-cleavage turned out to be 0.16.

On to G7C A11C C31U, for which the self-cleavage amounted to 0.02.

Regarding G7U A12C G22A, the self-cleavage amounted to 0.02.

Regarding G7C G22U G40C C46A, the self-cleavage is 0.08.

Consider G7C U32C G44U, for which the self-cleavage came out at 0.15.

In the case of G7U A12C G17A G27C, the self-cleavage came to 0.03.

For G7C C15G G22C A26U C37A, the self-cleavage turned out to be 0.05.

For G7C C15G U20G G40U, the self-cleavage is 0.01.

Consider G7C A12C C23U A25U, for which the self-cleavage stood at 0.01.

As for G7C C37U G40A, the self-cleavage turned out to be 0.03.

On to G7U A11U G19U C23A A39C, for which the self-cleavage came out at 0.01.

As to G7C C10A G21U G35U C45U, the self-cleavage is 0.04.

Take G7U A11C A24U A26U G29U A41C: the self-cleavage turned out to be 0.01.

With G7C U9A A14C A16G U32G, the self-cleavage is 0.08.

For G7C A14C C45G, the self-cleavage amounted to 0.04.

For G7C G22A A39U, the self-cleavage is 0.08.

Consider G7C G21U A26C G33U, for which the self-cleavage stood at 0.04.

Regarding G7C A25G C46U, the self-cleavage stood at 0.1.

Turning to G7C C15A C18U A26G U32A A39C, the self-cleavage worked out at 0.06.

With G7C C8G A16U C31U U38G, the self-cleavage was found to be 0.06.

On to G7C G29A C42U, for which the self-cleavage was found to be 0.03.

Regarding G7C A12G C42G, the self-cleavage stood at 0.02.

G7C A14C C15A G30A: the self-cleavage was determined as 0.02.

For the variant G7C C10A A25U A39C A41C, the self-cleavage stood at 0.01.

On to G7C G21A C31G U32A U34A, for which the self-cleavage was 0.01.

G7C U28G C31A G36U C46U: the self-cleavage was 0.02.

G7C C13G C23U A25U U32G C37G U38C C46U: the self-cleavage turned out to be 0.03.

G7C C8G C18U C31A G44C: the self-cleavage was 0.01.

As for G7C U9A G35U C42G, the self-cleavage was found to be 0.03.

For G7C U9A A24C G33A G36C, the self-cleavage turned out to be 0.03.

As for G7C A14C C46U, the self-cleavage is 0.01.

As for G7C G33U A39U, the self-cleavage was 0.06.

In the case of G7U A12U C13A G17A A26U G40A C42A, the self-cleavage amounted to 0.22.

Turning to G7C G27A G44C, the self-cleavage amounted to 0.13.

For the variant G7C A26G U32A, the self-cleavage came out at 0.03.

With G7C G17U U32A U34A, the self-cleavage came out at 0.02.

In the case of G7C A12G C15U G30C G36C C37U, the self-cleavage came to 0.01.

On to G7C C23G C37A, for which the self-cleavage amounted to 0.03.

In the case of G7C C10G A11U A26C C46G, the self-cleavage was determined as 0.03.

With G7C C18G C31U, the self-cleavage was 0.

Consider G7C G30A G35A, for which the self-cleavage was found to be 0.11.

On to G7C G22C A39C U43C, for which the self-cleavage stood at 0.03.

As to G7C C10A A16C G19U A24C C46A, the self-cleavage amounted to 0.01.

For G7C A12U G36C U43C, the self-cleavage came out at 0.07.

G7C C13U G17U: the self-cleavage worked out at 0.08.

Consider G7C C10A C31G G44U, for which the self-cleavage amounted to 0.03.

For G7C C13G C15U U20A G27U G30A C46A, the self-cleavage was found to be 0.05.

Take G7U A12G C37A: the self-cleavage came out at 0.01.

For G7C C23A C37A U38A C42U, the self-cleavage stood at 0.

Consider G7U A11G C13U G36U, for which the self-cleavage was found to be 0.01.

Consider G7C G35A U38C, for which the self-cleavage was 0.1.

On to G7C G22A G44U, for which the self-cleavage was found to be 0.07.

With G7C A12U C23G G29C G33U A41U, the self-cleavage turned out to be 0.02.

G7C C8U G21A: the self-cleavage worked out at 0.64.

As to G7U A12U A14G G17U C23A C31U C42A, the self-cleavage is 0.02.

In the case of G7C A12U U28A G36U U38A, the self-cleavage was found to be 0.02.

In the case of G7C U9G U20A, the self-cleavage is 0.04.

For G7U A12G C23G A41U, the self-cleavage was determined as 0.02.

Take G7C U20A U43C: the self-cleavage was 0.06.

As for G7C U38A C45U, the self-cleavage is 0.05.

G7C A12C C23U U43A: the self-cleavage is 0.01.

G7C C8A C18A G36A C42G C45A: the self-cleavage came out at 0.09.

With G7C C18A A26U C31G, the self-cleavage came to 0.03.

On to G7C C31U G36C, for which the self-cleavage is 0.06.

On to G7C A14U G36U U38C, for which the self-cleavage came to 0.09.

Regarding G7C C42U C45U, the self-cleavage was 0.09.

On to G7C G35C A39U, for which the self-cleavage was 0.06.

In the case of G7C G30C G40C C46U, the self-cleavage was 0.07.

On to G7C C23G U34A C46U, for which the self-cleavage came out at 0.05.

For the variant G7C U38G A39G A41U, the self-cleavage turned out to be 0.

On to G7U A12G G21U, for which the self-cleavage was 0.02.

With G7C C18A G19C C23G A24C G30A C45G, the self-cleavage came out at 0.1.

Consider G7C C8U A11C C15U G27A G30A C37A U38C, for which the self-cleavage stood at 0.01.

Turning to G7C U9C A39C G40A, the self-cleavage is 0.01.

With G7C C8G C13U G21C, the self-cleavage stood at 0.07.

As to G7C U9A G40C, the self-cleavage was 0.05.

As for G7C A11C C18G, the self-cleavage stood at 0.01.

Take G7C A11C A24C A26U: the self-cleavage is 0.

As for G7C C31U G33A G36U C45G, the self-cleavage stood at 0.

G7C C13U G19U U20C G36A C46U: the self-cleavage stood at 0.11.

Consider G7U A11U G44U, for which the self-cleavage was 0.01.

For G7C C23U A41G, the self-cleavage was determined as 0.01.

Regarding G7C C15A U20A G29A G35C G44A, the self-cleavage stood at 0.02.

Regarding G7C A11U U28C G33U, the self-cleavage came out at 0.03.

Regarding G7C G19C U34A, the self-cleavage turned out to be 0.03.

On to G7C C10A A12U A25U G30C, for which the self-cleavage is 0.1.

As to G7C A11U C13G A14C A24G C37A, the self-cleavage was 0.

For G7C A12C G21C A39G, the self-cleavage turned out to be 0.

In the case of G7C C15A G17U G30C U43C, the self-cleavage is 0.03.

On to G7C A39C A41U C45A, for which the self-cleavage was found to be 0.02.

Regarding G7C C31A C42U, the self-cleavage is 0.05.

In the case of G7C U9C A41G C45G, the self-cleavage was 0.09.

For the variant G7C A16U G29A C31U C46U, the self-cleavage was determined as 0.01.

With G7C A16U U20C G40U G44A, the self-cleavage amounted to 0.09.

Consider G7U A12U G35C, for which the self-cleavage stood at 0.01.

As to G7C C10A U34C C45U C46U, the self-cleavage is 0.03.

Turning to G7A U38G A39U, the self-cleavage is 0.02.

For the variant G7C C8A G19U C46A, the self-cleavage was 0.53.

With G7C C15A A16C G27U G35U, the self-cleavage came out at 0.05.

Turning to G7C A11U C18U G22U, the self-cleavage is 0.02.

Turning to G7C G22A G27C G33A U43A, the self-cleavage was found to be 0.05.

With G7C U20A A39G, the self-cleavage was found to be 0.03.

Take G7U A11G A16C C18A G29A G30U: the self-cleavage is 0.02.

For G7C G21A G27U G40U, the self-cleavage turned out to be 0.12.

For G7C C13U C23U A25C C46A, the self-cleavage amounted to 0.01.

Turning to G7U A12G A24C G29C, the self-cleavage was determined as 0.01.

As for G7C C8U C13G G29C, the self-cleavage turned out to be 0.07.

As to G7C A39C G44U, the self-cleavage was determined as 0.1.

Regarding G7C A25C U34A, the self-cleavage stood at 0.02.

On to G7C C45G C46U, for which the self-cleavage came out at 0.09.

For G7C C8A C23U G36A C46A, the self-cleavage was determined as 0.13.

Take G7C A11U G17U G19A G21U: the self-cleavage was 0.02.

Regarding G7C G35U G36A, the self-cleavage worked out at 0.13.

Consider G7C C8U C18G C31U C42A, for which the self-cleavage was determined as 0.14.

For G7C C10A U32G, the self-cleavage is 0.04.

Take G7C A12C G19C G36A A39G: the self-cleavage was found to be 0.

For the variant G7C C18A G21C U28A G40C, the self-cleavage was 0.12.

For the variant G7C G22U G30C G40U, the self-cleavage amounted to 0.84.

Turning to G7C C15A G17C G36C G40U, the self-cleavage came to 0.07.

With G7C A24G G33A C37G, the self-cleavage came to 0.02.

With G7C A16C G17A A26U U32A U38G, the self-cleavage came out at 0.

As for G7C C37A C46A, the self-cleavage was 0.13.

Regarding G7C G21C C37A, the self-cleavage came to 0.18.

For the variant G7C C13U U20G G30C C31U, the self-cleavage stood at 0.01.

Consider G7C C8A A24G U43C, for which the self-cleavage is 0.06.

For the variant G7U A11U A25U, the self-cleavage was 0.04.

As to G7C A12G C13G G21U U32C G35U A39U G40U, the self-cleavage was found to be 0.

As to G7C C8U C18G A25C U38G A41U, the self-cleavage was 0.03.

Regarding G7C C15U G30A C42G C46U, the self-cleavage stood at 0.01.

In the case of G7C G30U C31U, the self-cleavage was found to be 0.02.

Take G7U A12U U32G: the self-cleavage was 0.02.

In the case of G7C U9A C45U, the self-cleavage worked out at 0.09.

As to G7C G30C G40A, the self-cleavage turned out to be 0.06.

With G7C G44U C45G, the self-cleavage came to 0.

Consider G7C U34G U38G, for which the self-cleavage turned out to be 0.03.

On to G7C C13U A24C A39C, for which the self-cleavage came to 0.06.

Turning to G7C A12U A25C G27A G36U C45A, the self-cleavage came out at 0.01.

G7C U20G C23A A26G: the self-cleavage stood at 0.04.

Take G7U A12U C23G: the self-cleavage was found to be 0.01.

As to G7U A11U A16U G35U, the self-cleavage is 0.02.

On to G7C C18G G30C G44U C45G, for which the self-cleavage was found to be 0.05.

Regarding G7C A14C C15G C31U G33C, the self-cleavage came to 0.09.

In the case of G7C C18G G19C A25U C42A, the self-cleavage came to 0.03.

Take G7C A14U C23G G29U: the self-cleavage worked out at 0.08.

Turning to G7C A16G G17U, the self-cleavage is 0.06.

With G7C G33A C37G, the self-cleavage amounted to 0.03.
